Data published in the supplement of paper PMC10037445.
Over roughly 2,900 compounds, “NF-kB SEAP reporter activity, fold change vs agonist alone” has its median near 0.99; the highest 2% begin near 2.6. The list shows a part of the results.

What was measured:
RAW-Dual [1] = test: NF-kB SEAP reporter activity, fold change vs agonist alone; cytotoxicity flag (confluency mask): not cytotoxic; higher = enhanced NF-kB activity
Summary of the method: (§1)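 Library stock was pin-tooled at 50 nL into 384-well plates of RAW-Dual macrophages (50,000 cells/well, DMEM), followed 1 h later by a PRR agonist, and the cells were kept at 37 °C, 5% CO2. Supernatant collected after 20 hours was read for IRF by QuantiLuc luminescence and for NF-κB by QuantiBlue absorbance at 620 nm. Reporter activity is fold change over agonist-alone wells, and a well counted as cytotoxic when its IncuCyte confluency was below 70% of agonist controls in both mask sets.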

RAW-Dual [2] = test: NF-kB SEAP reporter activity, fold change vs agonist alone; higher = enhanced NF-kB activity
Summary of the method: as §1

RAW-Dual [3] = test: NF-kB SEAP reporter activity, fold change vs agonist alone; cytotoxicity flag (confluency mask): cytotoxic (confluency <70% of control); higher = enhanced NF-kB activity
Summary of the method: as §1

[4] = agonist: ODN 1826 (TLR9) 0.5 ug/mL
[5] = agonist: Pam2CSK4 (TLR2/6) 0.1 ug/mL
[6] = agonist: Pam3CSK4 (TLR2/1) 0.1 ug/mL
[7] = library stock concentration (final ~1000-fold dilution): 10 mM, cytotoxicity flag (confluency mask): not cytotoxic, agonist: Imiquimod (TLR7) […]
[8] = library stock concentration (final ~1000-fold dilution): 10 mM, cytotoxicity flag (confluency mask): not cytotoxic, agonist: MPLA (TLR4) […]
[9] = library stock concentration (final ~1000-fold dilution): 10 mM, cytotoxicity flag (confluency mask): cytotoxic (confluency <70% of control), agonist: Imiquimod (TLR7) […]
[10] = library stock concentration (final ~1000-fold dilution): 10 mM, cytotoxicity flag (confluency mask): cytotoxic (confluency <70% of control), agonist: MPLA (TLR4) […]

SMILES: Cn1cnc2c(F)c(Nc3ccc(Br)cc3Cl)c(C(=O)NOCCO)cc21 (library stock concentration (final ~1000-fold dilution): 10 mM)
- NF-kB SEAP reporter activity (RAW-Dual [1]; agonist: LPS (TLR4) 0.1 ug/mL): 0.243
- NF-kB SEAP reporter activity (RAW-Dual [1]; [4]): 0.322
- NF-kB SEAP reporter activity (RAW-Dual [1]; [5]): 0.0758
- NF-kB SEAP reporter activity (RAW-Dual [1]; [6]): 0.286

SMILES: Cn1cnc2c(F)c(Nc3ccc(Br)cc3Cl)c(C(=O)NOCCO)cc21
- NF-kB SEAP reporter activity (RAW-Dual [2]; [7]): 0.199
- NF-kB SEAP reporter activity (RAW-Dual [2]; [8]): 0.216

SMILES: Cl.OCCNCc1ccc(OCc2ccc(F)cc2)c(OCc2ccc(F)cc2)c1
- NF-kB SEAP reporter activity (RAW-Dual [2]; [9]): 1.41
- NF-kB SEAP reporter activity (RAW-Dual [2]; [10]): 1.5

SMILES: Cl.OCCNCc1ccc(OCc2ccc(F)cc2)c(OCc2ccc(F)cc2)c1 (library stock concentration (final ~1000-fold dilution): 10 mM)
- NF-kB SEAP reporter activity (RAW-Dual [3]; agonist: LPS (TLR4) 0.1 ug/mL): 0.702
- NF-kB SEAP reporter activity (RAW-Dual [3]; [4]): 0.629
- NF-kB SEAP reporter activity (RAW-Dual [3]; [5]): 0.301
- NF-kB SEAP reporter activity (RAW-Dual [3]; [6]): 0.354

SMILES: NC(=O)c1ccccc1 (library stock concentration (final ~1000-fold dilution): 10 mM)
- NF-kB SEAP reporter activity (RAW-Dual [1]; agonist: LPS (TLR4) 0.1 ug/mL): 1.11
- NF-kB SEAP reporter activity (RAW-Dual [1]; [4]): 1.01
- NF-kB SEAP reporter activity (RAW-Dual [1]; [5]): 1.04
- NF-kB SEAP reporter activity (RAW-Dual [1]; [6]): 1.1

SMILES: NC(=O)c1ccccc1
- NF-kB SEAP reporter activity (RAW-Dual [2]; [8]): 1.29

SMILES: Cl.Cl.OCCN1CCN(CC/C=C2/c3ccccc3Sc3ccc(C(F)(F)F)cc32)CC1
- NF-kB SEAP reporter activity (RAW-Dual [2]; [9]): 1.58
- NF-kB SEAP reporter activity (RAW-Dual [2]; [10]): 0.876

SMILES: Cl.Cl.OCCN1CCN(CC/C=C2/c3ccccc3Sc3ccc(C(F)(F)F)cc32)CC1 (library stock concentration (final ~1000-fold dilution): 10 mM)
- NF-kB SEAP reporter activity (RAW-Dual [3]; agonist: LPS (TLR4) 0.1 ug/mL): 0.443
- NF-kB SEAP reporter activity (RAW-Dual [3]; [4]): 0.412
- NF-kB SEAP reporter activity (RAW-Dual [3]; [5]): 0.431
- NF-kB SEAP reporter activity (RAW-Dual [3]; [6]): 0.63

SMILES: COc1c(Cl)cc2c([nH]c3cnccc32)c1NC(=O)c1cccnc1C
- NF-kB SEAP reporter activity (RAW-Dual [2]; [7]): 0.467
- NF-kB SEAP reporter activity (RAW-Dual [2]; [8]): 0.562

SMILES: COc1c(Cl)cc2c([nH]c3cnccc32)c1NC(=O)c1cccnc1C (library stock concentration (final ~1000-fold dilution): 10 mM)
- NF-kB SEAP reporter activity (RAW-Dual [1]; agonist: LPS (TLR4) 0.1 ug/mL): 0.498
- NF-kB SEAP reporter activity (RAW-Dual [1]; [4]): 0.382
- NF-kB SEAP reporter activity (RAW-Dual [1]; [5]): 0.219
- NF-kB SEAP reporter activity (RAW-Dual [1]; [6]): 0.33

SMILES: O=C(O)C1(Cc2cccc(Nc3nccs3)n2)CCC(Oc2cccc(Cl)c2F)CC1 (stereo not given)
- NF-kB SEAP reporter activity (RAW-Dual [2]; [7]): 1.07
- NF-kB SEAP reporter activity (RAW-Dual [2]; [8]): 1.04

SMILES: O=C(O)C1(Cc2cccc(Nc3nccs3)n2)CCC(Oc2cccc(Cl)c2F)CC1 (stereo not given) (library stock concentration (final ~1000-fold dilution): 10 mM)
- NF-kB SEAP reporter activity (RAW-Dual [1]; agonist: LPS (TLR4) 0.1 ug/mL): 1.26
- NF-kB SEAP reporter activity (RAW-Dual [1]; [4]): 0.637
- NF-kB SEAP reporter activity (RAW-Dual [1]; [5]): 0.778
- NF-kB SEAP reporter activity (RAW-Dual [1]; [6]): 0.563

SMILES: Cl.Cl.c1cc(-c2nc3ccc(OCCCN4CCCC4)cc3o2)ccc1OCCCN1CCCC1
- NF-kB SEAP reporter activity (RAW-Dual [2]; library stock concentration (final ~1000-fold dilution): 1 mM, cytotoxicity flag (confluency mask): not cytotoxic, agonist: Imiquimod (TLR7) […]): 1.27
- NF-kB SEAP reporter activity (RAW-Dual [2]; library stock concentration (final ~1000-fold dilution): 1 mM, cytotoxicity flag (confluency mask): not cytotoxic, agonist: MPLA (TLR4) […]): 1.08

SMILES: Cl.Cl.c1cc(-c2nc3ccc(OCCCN4CCCC4)cc3o2)ccc1OCCCN1CCCC1 (library stock concentration (final ~1000-fold dilution): 1 mM)
- NF-kB SEAP reporter activity (RAW-Dual [1]; agonist: LPS (TLR4) 0.1 ug/mL): 0.935
- NF-kB SEAP reporter activity (RAW-Dual [1]; [4]): 0.224
- NF-kB SEAP reporter activity (RAW-Dual [1]; [5]): 1.11
- NF-kB SEAP reporter activity (RAW-Dual [1]; [6]): 1.06

SMILES: N#CC1(c2ccc(NC(=O)c3cccnc3NCc3ccncc3)cc2)CCCC1
- NF-kB SEAP reporter activity (RAW-Dual [2]; [8]): 0.787

SMILES: N#CC1(c2ccc(NC(=O)c3cccnc3NCc3ccncc3)cc2)CCCC1 (library stock concentration (final ~1000-fold dilution): 10 mM)
- NF-kB SEAP reporter activity (RAW-Dual [1]; agonist: LPS (TLR4) 0.1 ug/mL): 1.14
- NF-kB SEAP reporter activity (RAW-Dual [1]; [4]): 0.66
- NF-kB SEAP reporter activity (RAW-Dual [1]; [5]): 0.639
- NF-kB SEAP reporter activity (RAW-Dual [1]; [6]): 0.296

SMILES: CC(ONC(=O)c1cc(C(F)(F)F)cc(C(F)(F)F)c1)C(=O)Nc1ccc(Cl)cc1 (stereo not given) (library stock concentration (final ~1000-fold dilution): 10 mM)
- NF-kB SEAP reporter activity (RAW-Dual [1]; agonist: LPS (TLR4) 0.1 ug/mL): 1.45
- NF-kB SEAP reporter activity (RAW-Dual [1]; [4]): 0.913
- NF-kB SEAP reporter activity (RAW-Dual [1]; [5]): 0.239
- NF-kB SEAP reporter activity (RAW-Dual [1]; [6]): 0.6

SMILES: CC(ONC(=O)c1cc(C(F)(F)F)cc(C(F)(F)F)c1)C(=O)Nc1ccc(Cl)cc1 (stereo not given)
- NF-kB SEAP reporter activity (RAW-Dual [2]; [7]): 0.98
- NF-kB SEAP reporter activity (RAW-Dual [2]; [8]): 1.4

SMILES: CC1OC(OC2C(O)C(OCCc3ccc(O)c(O)c3)OC(CO)C2OC(=O)/C=C/c2ccc(O)c(O)c2)C(O)C(O)C1O (stereo not given) (library stock concentration (final ~1000-fold dilution): 10 mM)
- NF-kB SEAP reporter activity (RAW-Dual [1]; agonist: LPS (TLR4) 0.1 ug/mL): 1.21
- NF-kB SEAP reporter activity (RAW-Dual [1]; [4]): 1.05
- NF-kB SEAP reporter activity (RAW-Dual [1]; [5]): 1.03
- NF-kB SEAP reporter activity (RAW-Dual [1]; [6]): 1.11

SMILES: CC1OC(OC2C(O)C(OCCc3ccc(O)c(O)c3)OC(CO)C2OC(=O)/C=C/c2ccc(O)c(O)c2)C(O)C(O)C1O (stereo not given)
- NF-kB SEAP reporter activity (RAW-Dual [2]; [8]): 1.02

SMILES: CC(Nc1ncnc(N)c1C#N)c1cc2cccc(-c3ccc(=O)n(C)c3)c2c(=O)n1C(C)C (stereo not given) (library stock concentration (final ~1000-fold dilution): 10 mM)
- NF-kB SEAP reporter activity (RAW-Dual [1]; agonist: LPS (TLR4) 0.1 ug/mL): 4.83
- NF-kB SEAP reporter activity (RAW-Dual [1]; [4]): 0.722
- NF-kB SEAP reporter activity (RAW-Dual [1]; [5]): 1.22
- NF-kB SEAP reporter activity (RAW-Dual [1]; [6]): 3.02

SMILES: CC(Nc1ncnc(N)c1C#N)c1cc2cccc(-c3ccc(=O)n(C)c3)c2c(=O)n1C(C)C (stereo not given)
- NF-kB SEAP reporter activity (RAW-Dual [2]; [7]): 1.22
- NF-kB SEAP reporter activity (RAW-Dual [2]; [8]): 2.8

SMILES: COc1ccc2[nH]cc(C=C3C(=O)Nc4ccc(NC(=O)CCN5CCCCC5)cc43)c2c1 (library stock concentration (final ~1000-fold dilution): 10 mM)
- NF-kB SEAP reporter activity (RAW-Dual [3]; agonist: LPS (TLR4) 0.1 ug/mL): 4.16
- NF-kB SEAP reporter activity (RAW-Dual [3]; [4]): 0.42
- NF-kB SEAP reporter activity (RAW-Dual [3]; [5]): 1.36
- NF-kB SEAP reporter activity (RAW-Dual [3]; [6]): 2.01

SMILES: COc1ccc2[nH]cc(C=C3C(=O)Nc4ccc(NC(=O)CCN5CCCCC5)cc43)c2c1
- NF-kB SEAP reporter activity (RAW-Dual [2]; [9]): 1.4
- NF-kB SEAP reporter activity (RAW-Dual [2]; [10]): 2

SMILES: CCCCCOc1ccc(-c2cc(-c3ccc(C(=O)NC4CC(O)C(O)NC(=O)C5C(O)C(C)CN5C(=O)C(C(O)CC(N)=O)NC(=O)C(C(O)C(O)c5ccc(O)c(OS(=O)(=O)O)c5)NC(=O)C5CC(O)CN5C(=O)C(C(C)O)NC4=O)cc3)no2)cc1 (stereo not given)
- NF-kB SEAP reporter activity (RAW-Dual [2]; library stock concentration (final ~1000-fold dilution): 10 mM water, cytotoxicity flag (confluency mask): not cytotoxic, agonist: Imiquimod (TLR7) […]): 0.949
- NF-kB SEAP reporter activity (RAW-Dual [2]; library stock concentration (final ~1000-fold dilution): 10 mM water, cytotoxicity flag (confluency mask): not cytotoxic, agonist: MPLA (TLR4) […]): 1.14

SMILES: CCCCCOc1ccc(-c2cc(-c3ccc(C(=O)NC4CC(O)C(O)NC(=O)C5C(O)C(C)CN5C(=O)C(C(O)CC(N)=O)NC(=O)C(C(O)C(O)c5ccc(O)c(OS(=O)(=O)O)c5)NC(=O)C5CC(O)CN5C(=O)C(C(C)O)NC4=O)cc3)no2)cc1 (stereo not given) (library stock concentration (final ~1000-fold dilution): 10 mM water)
- NF-kB SEAP reporter activity (RAW-Dual [1]; agonist: LPS (TLR4) 0.1 ug/mL): 1.2
- NF-kB SEAP reporter activity (RAW-Dual [1]; [4]): 1.05
- NF-kB SEAP reporter activity (RAW-Dual [1]; [5]): 0.968
- NF-kB SEAP reporter activity (RAW-Dual [1]; [6]): 1.09
